± gives the standard error. Variants at the background level are over-represented here.
B1: glmS ribozyme (parent)
chain: AUAAAAGCGCCAGAACUACAGAAAUGUAGUUGACGAGGAGGAGGUUUAUCGAAUUUUCGGCGGAUGCCUCCAAA

Columns and labels:
Conditions in all cases: with glucosamine-6-phosphate
glucosamine-6-phosphate [1] = variants of: B1; experiment: self-cleavage kobs at 40 uM GlcN6P; higher = faster cleavage; RNA array
Outline: (§1)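 kobs was derived by fitting per-tile medians to one- or two-exponential decays after normalising signals to baseline and to non-cleaving reference variants. Those signals came from barcoded ribozyme variants transcribed in situ by E. coli RNA polymerase on sequenced MiSeq chips, followed through a hybridised Cy3 probe at 37 °C and imaged over ~14 h. Glucosamine-6-phosphate (40 μM to 10 mM) in HEPES/KCl/Mg(OAc)2 buffer was flowed in. Weighted Michaelis–Menten fits across concentrations then gave kcat and KM.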

glucosamine-6-phosphate [2] = variants of: B1; experiment: self-cleavage kobs at 640 uM GlcN6P; higher = faster cleavage; RNA array
Outline: as §1

glucosamine-6-phosphate [3] = variants of: B1; experiment: self-cleavage kobs at 160 uM GlcN6P; higher = faster cleavage; RNA array
Outline: as §1

glucosamine-6-phosphate [4] = variants of: B1; experiment: self-cleavage kobs at 10000 uM GlcN6P; higher = faster cleavage; RNA array
Outline: as §1

glucosamine-6-phosphate [5] = variants of: B1; experiment: self-cleavage kobs at 2500 uM GlcN6P; higher = faster cleavage; RNA array
Outline: as §1

Variant	self-cleavage kobs at 40 uM GlcN6P (glucosamine-6-phosphate [1])	self-cleavage kobs at 640 uM GlcN6P (glucosamine-6-phosphate [2])	self-cleavage kobs at 160 uM GlcN6P (glucosamine-6-phosphate [3])	self-cleavage kobs at 10000 uM GlcN6P (glucosamine-6-phosphate [4])	self-cleavage kobs at 2500 uM GlcN6P (glucosamine-6-phosphate [5])
A6U G43U	< 1e-05 s⁻¹	< 1e-05 s⁻¹	< 1e-05 s⁻¹		
G7U U57A	< 1e-05 s⁻¹	< 1e-05 s⁻¹	< 1e-05 s⁻¹	< 1e-05 s⁻¹	
G7U U57C	< 1e-05 s⁻¹	< 1e-05 s⁻¹	< 1e-05 s⁻¹	< 1e-05 s⁻¹	
G7U G29C C61U	< 1e-05 s⁻¹				
A6U U30C U56C	< 1e-05 s⁻¹				
G7C A36C	< 1e-05 s⁻¹	< 1e-05 s⁻¹	< 1e-05 s⁻¹	< 1e-05 s⁻¹	< 1e-05 s⁻¹
G7C A36G	< 1e-05 s⁻¹	< 1e-05 s⁻¹	< 1e-05 s⁻¹	< 1e-05 s⁻¹	
G7U A39C G59C	< 1e-05 s⁻¹			< 1e-05 s⁻¹	
G7C U30G G35U G37U U57C C71G	< 1e-05 s⁻¹			< 1e-05 s⁻¹	
G7U A42U	< 1e-05 s⁻¹	< 1e-05 s⁻¹		< 1e-05 s⁻¹	< 1e-05 s⁻¹
G7U A42G	< 1e-05 s⁻¹	< 1e-05 s⁻¹	< 1e-05 s⁻¹	< 1e-05 s⁻¹	< 1e-05 s⁻¹
C8A A12U A39G	< 1e-05 s⁻¹	< 1e-05 s⁻¹		< 1e-05 s⁻¹	
G7C U30C	< 1e-05 s⁻¹	< 1e-05 s⁻¹	< 1e-05 s⁻¹	< 1e-05 s⁻¹	< 1e-05 s⁻¹
C8A A14U A15U G41C	< 1e-05 s⁻¹				
C8A C34U G41A U56A C70U	< 1e-05 s⁻¹				
A6U G35C G51C U65G	< 1e-05 s⁻¹				
G7A U30A G40C	< 1e-05 s⁻¹				
G7U G29C G43U G51A	< 1e-05 s⁻¹			< 1e-05 s⁻¹	
G7U G51A U55A	< 1e-05 s⁻¹		< 1e-05 s⁻¹	< 1e-05 s⁻¹	< 1e-05 s⁻¹
G7C C61G	< 1e-05 s⁻¹		< 1e-05 s⁻¹		< 1e-05 s⁻¹
G7A G44U U56C	< 1e-05 s⁻¹		< 1e-05 s⁻¹	< 1e-05 s⁻¹	
A6U G51U	< 1e-05 s⁻¹		< 1e-05 s⁻¹		
C8A A48C	< 1e-05 s⁻¹	< 1e-05 s⁻¹	< 1e-05 s⁻¹	< 1e-05 s⁻¹	< 1e-05 s⁻¹

Variant	self-cleavage kobs at 40 uM GlcN6P (glucosamine-6-phosphate [1])	self-cleavage kobs at 640 uM GlcN6P (glucosamine-6-phosphate [2])	self-cleavage kobs at 160 uM GlcN6P (glucosamine-6-phosphate [3])	self-cleavage kobs at 10000 uM GlcN6P (glucosamine-6-phosphate [4])	self-cleavage kobs at 2500 uM GlcN6P (glucosamine-6-phosphate [5])
G7C A15U G35U G60A	< 1e-05 s⁻¹	< 1e-05 s⁻¹			< 1e-05 s⁻¹
G7A U49G U55G	< 1e-05 s⁻¹				< 1e-05 s⁻¹
G7U U45G	< 1e-05 s⁻¹	< 1e-05 s⁻¹	< 1e-05 s⁻¹	< 1e-05 s⁻¹	< 1e-05 s⁻¹
C8A G35C A53C C67G	< 1e-05 s⁻¹				
G7U C50U	< 1e-05 s⁻¹			< 1e-05 s⁻¹	
G7U C50G	0.000281 ± 8.4e-05 s⁻¹		0.000551 ± 0.00024 s⁻¹		0.0008 ± 0.00024 s⁻¹
G7A A42G	< 1e-05 s⁻¹		< 1e-05 s⁻¹		
C8A G29U G35U	< 1e-05 s⁻¹			< 1e-05 s⁻¹	
G7C U55A	< 1e-05 s⁻¹	< 1e-05 s⁻¹	< 1e-05 s⁻¹		
G7C G44A	< 1e-05 s⁻¹	< 1e-05 s⁻¹	< 1e-05 s⁻¹	< 1e-05 s⁻¹	< 1e-05 s⁻¹
G7C G44U	< 1e-05 s⁻¹			< 1e-05 s⁻¹	
G7A A52G	< 1e-05 s⁻¹	< 1e-05 s⁻¹		< 1e-05 s⁻¹	
G7U G44C	< 1e-05 s⁻¹	< 1e-05 s⁻¹	< 1e-05 s⁻¹	< 1e-05 s⁻¹	< 1e-05 s⁻¹
G7U G44A	< 1e-05 s⁻¹	< 1e-05 s⁻¹		< 1e-05 s⁻¹	< 1e-05 s⁻¹
G7U C10G	< 1e-05 s⁻¹	< 1e-05 s⁻¹		< 1e-05 s⁻¹	< 1e-05 s⁻¹
G7U C58U	< 1e-05 s⁻¹	< 1e-05 s⁻¹		< 1e-05 s⁻¹	< 1e-05 s⁻¹
G7U C58A	< 1e-05 s⁻¹	< 1e-05 s⁻¹		< 1e-05 s⁻¹	< 1e-05 s⁻¹
G7C A12C G26U U30A A36U A64U U65C	< 1e-05 s⁻¹			< 1e-05 s⁻¹	
G7A A39C A52U G60A C67U	< 1e-05 s⁻¹				
G7C G35U U54G	< 1e-05 s⁻¹			< 1e-05 s⁻¹	< 1e-05 s⁻¹
G7U A64G	< 1e-05 s⁻¹			< 1e-05 s⁻¹	< 1e-05 s⁻¹
G7C U31G G32C	< 1e-05 s⁻¹				

Reference: the supplement of paper PMC7125110
